Test results reported in article PMC10668032.
Some of the results follow. At the low end of the ranking the order means little.

target: SIX1 homeodomain (reference allele) (UniProt Q15475); assay: universal protein binding microarray; settings: Universal all-10-mer PBM (8x60K, AMADID 030236), 300 nM GST-tagged protein, Alexa Fluor 488 anti-GST; buffer, salt, pH and temperature not stated; high values mean tight binding; most listed sequences are background and not binding sites; double strand, one strand shown

Sequence	binding signal [E-score]
CGAACATC	-0.128
GTTCGATA	0.324
GATCGTCC	0.238
GAGACTAC	-0.00579
GTATATGA	0.225
AACTGATA	0.409
AATGCGTA	0.0336
CTCCAGAC	-0.142
TAACTGAA	-0.0622
CCTGGAAC	-0.0488
CCCTACCG	0.16
CCTTAACA	-0.0963
AAGATCTA	0.122
AGATCAAG	0.232
CTCGCATC	0.11
AAGCCGAC	-0.00158
AACATCTT	-0.237
AGCCATTC	-0.244
GAGTGCAC	-0.0757
CGATGCCC	0.0139
AGCGACCT	-0.309
ACTTAAAT	-0.105
TGCTTCAA	-0.273
ATTCAAAA	0.00902
GATAGGAC	0.22

Sequence	binding signal [E-score]
GTAATCCA	0.162
CTATCGGC	0.121
CCTCGTCC	-0.13
ACATATTG	0.108
AGCGCCCA	-0.287
GCTATACC	0.284
CTGATCAG	0.313
AGACGCCT	0.0241
GACCCTCA	-0.203
GAGTCAAC	-0.311
AACCGCCA	-0.149
AAGTCGTG	-0.167
CTCAAGGA	0.164
CACTCGAC	0.0256
ATAGCTTC	0.149
CTATGTCC	-0.0555
AGGACCTC	-0.173
ATTGATAA	0.0956
CCCCCCAG	-0.0395
GGGTTGAA	-0.147
GCCTGACA	-0.144
CTTCCATC	0.0188
GAAGAAAC	-0.302
GCGGAGCA	-0.0867
GAAGGATA	0.268

Sequence	binding signal [E-score]
ATTCCTTG	0.0804
ACCGGGCC	-0.0485
CAGCCTCC	-0.193
GGAAGGCC	-0.308
CTTAATGC	-0.054
CGGGAAGA	0.0155
ATTTTTTC	-0.0643
CACGAATC	-0.0746
GGCACGGA	-0.0973
GAAGATTA	0.144
AATATTTC	-0.0866
CTAATGCA	-0.131
GCGCGTCC	-0.124
ATGTCACG	-0.0862
AAGATCGG	0.174
ATACTAGC	0.245
GTGCGAAC	-0.0853
CATTTGCG	-0.198
AAGACAGT	-0.186
GAGTTACA	-0.0412
GTCTCACA	0.138
ACCCCTGC	0.0292
GCCTCTTA	-0.173
TCCCAAGA	0.102
CCTAGGCG	-0.141

Sequence	binding signal [E-score]
ACGATACG	0.432
TACCGCCA	0.0097
CCGATATA	0.333
ACCATGAG	0.0827
AACCAGCT	-0.0685
CGCAACAC	-0.0997
AGGTTCAG	0.0424
ACGCTCTC	-0.145
ACATGGCT	-0.106
CGTGCAAA	-0.117
GTTATGGA	-0.103
CTGGCCGA	-0.175
GCCGCGGA	-0.00539
TGAGCAAA	-0.101
GGCTGCCC	-0.0149
ATGGAGAG	-0.071
AGATTCCT	0.0599
CGTACCTC	-0.246
AAACCAAA	-0.177
CAAGTTTC	-0.0788
AATTAATA	0.191
CATCAGAC	0.0453
ATGCCACG	-0.0265
AAACATTT	-0.239
ACTTCTTC	-0.202

Sequence	binding signal [E-score]
CGCTCGTA	0.06
AGAATGTC	-0.115
AATACTTG	0.151
CGACATAC	-0.0677
GGGATACC	0.455
GCGGCGCC	-0.12
ATGCGGTC	-0.008
CGATAACG	-0.0326
AGAATGGG	-0.138
CGACTATA	-0.0154
AGTAGCTC	-0.12
ACAATGCC	-0.217
CGCCGCAA	-0.196
GTTGATTA	-0.093
TAAATGTA	-0.0625
ACAGGGTG	-0.152
ACTGTCCT	-0.0567
AAGCGCGC	-0.223
GAGAAAAA	-0.276
CATAAATG	-0.116
GCACAGTA	-0.0604
ACTCCTCT	0.0686
GATCGTGA	0.229
AAATATAT	0.147
CTAAGGGA	0.101

Sequence	binding signal [E-score]
GGCTAAGA	0.0134
CATAGGTA	0.108
GGATCAAA	0.372
GATGGAGC	-0.0452
AGCCGCCA	-0.0686
AATCTAGA	0.0851
GACTCTAC	-0.141
GCCATGGA	-0.148
CCCTACGA	0.0996
CCAATTGA	-0.0424
AAAAGTGA	-0.13
AGACCGGA	0.157
ACATTAGG	-0.0929
AACCTGGC	-0.124
GATTGCTA	-0.00049
CAATTATG	-0.119
TTACGAAA	-0.22
ATTTTCGG	-0.0647
GTAGGGAC	-0.118
GTAAGTAA	-0.192
ACCGCTTC	-0.022
GTCTGTAA	0.0216
CCGGCACG	-0.137
GATCAGAA	0.138
ACAACCGT	-0.143

Sequence	binding signal [E-score]
CAGCGTGG	-0.115
CTCCTACA	-0.0512
CCCGTAGC	-0.0697
CATCAAGC	-0.128
AGAAATAG	-0.0632
ACAAAAGG	-0.0158
CGTATACG	0.317
AACTGAAT	-0.22
CACGGTGA	0.0519
AAGGACGC	-0.278
CGACCGTC	-0.0246
TCTTCGCA	-0.114
ACGTTAAG	-0.234
AACTGTTA	-0.257
AGCCCACA	-0.0431
GCCCTGCA	-0.0628
TATCAGGA	0.397
CCACGGGC	-0.178
ACAGCAGC	-0.289
AGGGGCTG	0.103
CATGGCGG	-0.054
CGCCAGTA	0.106
